From paper PMC5029610
These are yes or no findings as the source states them, for the method shown. In cells and extracts the contact can be indirect. Some binding calls cover weakened binding; strength is not graded here.

Sequences of proteins named here, by UniProt entry; tags and fusion partners are left off.
UniProt O35800: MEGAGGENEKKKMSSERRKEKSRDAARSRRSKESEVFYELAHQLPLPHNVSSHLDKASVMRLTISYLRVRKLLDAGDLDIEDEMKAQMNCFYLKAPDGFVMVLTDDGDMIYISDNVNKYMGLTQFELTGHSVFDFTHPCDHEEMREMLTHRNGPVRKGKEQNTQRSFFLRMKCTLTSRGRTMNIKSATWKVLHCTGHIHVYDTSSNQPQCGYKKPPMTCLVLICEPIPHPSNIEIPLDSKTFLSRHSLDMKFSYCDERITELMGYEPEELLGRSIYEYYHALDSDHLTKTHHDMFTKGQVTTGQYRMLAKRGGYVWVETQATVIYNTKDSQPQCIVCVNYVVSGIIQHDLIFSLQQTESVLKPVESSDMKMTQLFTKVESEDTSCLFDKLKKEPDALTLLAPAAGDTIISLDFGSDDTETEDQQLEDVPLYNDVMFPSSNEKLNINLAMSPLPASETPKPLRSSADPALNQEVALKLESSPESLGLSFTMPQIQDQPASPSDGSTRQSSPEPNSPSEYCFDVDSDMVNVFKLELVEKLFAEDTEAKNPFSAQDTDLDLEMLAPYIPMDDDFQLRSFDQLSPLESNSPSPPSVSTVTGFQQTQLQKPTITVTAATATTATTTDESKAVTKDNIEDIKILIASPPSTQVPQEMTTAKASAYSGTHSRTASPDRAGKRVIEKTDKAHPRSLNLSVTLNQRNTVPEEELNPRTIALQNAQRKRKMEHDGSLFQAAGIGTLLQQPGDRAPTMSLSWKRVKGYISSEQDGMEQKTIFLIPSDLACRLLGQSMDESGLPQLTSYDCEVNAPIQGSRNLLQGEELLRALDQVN
UniProt Q9EPW1: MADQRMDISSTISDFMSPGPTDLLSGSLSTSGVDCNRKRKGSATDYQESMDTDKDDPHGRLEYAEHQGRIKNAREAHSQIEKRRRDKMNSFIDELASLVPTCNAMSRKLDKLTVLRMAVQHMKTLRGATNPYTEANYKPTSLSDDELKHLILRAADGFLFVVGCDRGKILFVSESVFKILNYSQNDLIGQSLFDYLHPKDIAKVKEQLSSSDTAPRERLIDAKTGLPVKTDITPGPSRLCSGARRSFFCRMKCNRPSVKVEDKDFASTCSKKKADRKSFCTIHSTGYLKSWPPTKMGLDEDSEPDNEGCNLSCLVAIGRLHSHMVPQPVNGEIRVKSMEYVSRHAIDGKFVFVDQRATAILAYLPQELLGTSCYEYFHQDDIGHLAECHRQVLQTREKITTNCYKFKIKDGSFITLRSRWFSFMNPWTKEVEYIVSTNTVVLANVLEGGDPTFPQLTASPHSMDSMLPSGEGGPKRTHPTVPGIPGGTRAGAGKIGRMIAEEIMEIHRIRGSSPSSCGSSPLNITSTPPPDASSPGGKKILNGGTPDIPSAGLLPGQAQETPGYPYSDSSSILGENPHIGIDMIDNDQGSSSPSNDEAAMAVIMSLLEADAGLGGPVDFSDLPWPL
UniProt P41739: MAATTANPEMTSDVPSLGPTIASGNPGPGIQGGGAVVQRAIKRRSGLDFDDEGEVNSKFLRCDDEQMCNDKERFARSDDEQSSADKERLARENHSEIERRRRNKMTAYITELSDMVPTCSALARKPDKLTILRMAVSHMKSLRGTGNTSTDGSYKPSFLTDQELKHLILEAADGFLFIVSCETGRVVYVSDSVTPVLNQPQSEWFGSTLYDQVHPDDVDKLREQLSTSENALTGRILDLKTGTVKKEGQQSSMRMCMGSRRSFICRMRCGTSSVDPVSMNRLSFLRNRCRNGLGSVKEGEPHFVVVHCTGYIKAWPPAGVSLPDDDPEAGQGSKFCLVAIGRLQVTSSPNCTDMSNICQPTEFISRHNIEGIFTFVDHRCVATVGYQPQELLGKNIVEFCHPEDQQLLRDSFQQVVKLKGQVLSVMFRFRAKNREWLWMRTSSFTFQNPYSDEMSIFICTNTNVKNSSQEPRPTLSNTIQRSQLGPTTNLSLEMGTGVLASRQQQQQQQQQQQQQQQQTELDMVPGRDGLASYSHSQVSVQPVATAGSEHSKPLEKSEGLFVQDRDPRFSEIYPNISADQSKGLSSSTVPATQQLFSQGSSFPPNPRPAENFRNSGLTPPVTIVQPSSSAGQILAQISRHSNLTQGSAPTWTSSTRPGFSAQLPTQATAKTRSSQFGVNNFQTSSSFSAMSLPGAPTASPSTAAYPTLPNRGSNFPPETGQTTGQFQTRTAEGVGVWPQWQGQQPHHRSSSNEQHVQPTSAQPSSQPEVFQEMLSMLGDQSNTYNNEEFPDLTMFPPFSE

T1: CLOCK (not stated (endogenous in rat or mouse NP cells)) (UniProt Q9WVS9)
T1 sequence: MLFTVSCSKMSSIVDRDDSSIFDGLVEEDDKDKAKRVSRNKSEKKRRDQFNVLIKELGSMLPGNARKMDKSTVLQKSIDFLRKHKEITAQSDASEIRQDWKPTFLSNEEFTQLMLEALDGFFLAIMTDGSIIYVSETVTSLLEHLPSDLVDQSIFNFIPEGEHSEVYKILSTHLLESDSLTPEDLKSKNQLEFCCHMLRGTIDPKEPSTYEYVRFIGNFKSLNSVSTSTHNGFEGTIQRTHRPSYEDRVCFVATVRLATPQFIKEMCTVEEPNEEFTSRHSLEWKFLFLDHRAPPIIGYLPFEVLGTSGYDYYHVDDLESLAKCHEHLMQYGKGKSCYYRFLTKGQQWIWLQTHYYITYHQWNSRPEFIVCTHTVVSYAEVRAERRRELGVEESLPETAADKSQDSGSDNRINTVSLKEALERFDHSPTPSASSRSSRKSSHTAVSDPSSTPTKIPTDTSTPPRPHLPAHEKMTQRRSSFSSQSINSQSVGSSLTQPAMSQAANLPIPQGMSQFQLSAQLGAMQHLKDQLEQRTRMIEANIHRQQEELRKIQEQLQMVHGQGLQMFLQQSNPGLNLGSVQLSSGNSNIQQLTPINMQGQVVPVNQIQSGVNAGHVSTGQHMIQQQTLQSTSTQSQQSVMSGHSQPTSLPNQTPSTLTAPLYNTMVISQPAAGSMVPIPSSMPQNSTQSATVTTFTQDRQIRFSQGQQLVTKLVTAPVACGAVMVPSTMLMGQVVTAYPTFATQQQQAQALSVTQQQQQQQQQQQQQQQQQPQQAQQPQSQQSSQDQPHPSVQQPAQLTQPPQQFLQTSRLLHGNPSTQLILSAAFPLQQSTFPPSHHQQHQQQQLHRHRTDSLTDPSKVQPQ

B1: CLOCK (protein, UniProt Q9WVS9 1-862)
chain: MLFTVSCSKMSSIVDRDDSSIFDGLVEEDDKDKAKRVSRNKSEKKRRDQFNVLIKELGSMLPGNARKMDKSTVLQKSIDFLRKHKEITAQSDASEIRQDWKPTFLSNEEFTQLMLEALDGFFLAIMTDGSIIYVSETVTSLLEHLPSDLVDQSIFNFIPEGEHSEVYKILSTHLLESDSLTPEDLKSKNQLEFCCHMLRGTIDPKEPSTYEYVRFIGNFKSLNSVSTSTHNGFEGTIQRTHRPSYEDRVCFVATVRLATPQFIKEMCTVEEPNEEFTSRHSLEWKFLFLDHRAPPIIGYLPFEVLGTSGYDYYHVDDLESLAKCHEHLMQYGKGKSCYYRFLTKGQQWIWLQTHYYITYHQWNSRPEFIVCTHTVVSYAEVRAERRRELGVEESLPETAADKSQDSGSDNRINTVSLKEALERFDHSPTPSASSRSSRKSSHTAVSDPSSTPTKIPTDTSTPPRPHLPAHEKMTQRRSSFSSQSINSQSVGSSLTQPAMSQAANLPIPQGMSQFQLSAQLGAMQHLKDQLEQRTRMIEANIHRQQEELRKIQEQLQMVHGQGLQMFLQQSNPGLNLGSVQLSSGNSNIQQLTPINMQGQVVPVNQIQSGVNAGHVSTGQHMIQQQTLQSTSTQSQQSVMSGHSQPTSLPNQTPSTLTAPLYNTMVISQPAAGSMVPIPSSMPQNSTQSATVTTFTQDRQIRFSQGQQLVTKLVTAPVACGAVMVPSTMLMGQVVTAYPTFATQQQQAQALSVTQQQQQQQQQQQQQQQQQPQQAQQPQSQQSSQDQPHPSVQQPAQLTQPPQQFLQTSRLLHGNPSTQLILSAAFPLQQSTFPPSHHQQHQQQQLHRHRTDSLTDPSKVQPQ

Key:
Assay in all cases: co-IP; immunoprecipitation of endogenous proteins from NP cells cultured under normoxia or hypoxia (1% O2) for 24 h; Protein A/G PLUS-Agarose beads; Western blot; preimmune rabbit IgG as negative control
[1] = target: T1, CLOCK (not stated (endogenous in rat or mouse NP cells))
[2] = target: HIF-1α (not stated (endogenous in rat or mouse NP cells)) (UniProt O35800)
[3] = target: BMAL1 (brain and muscle ARNT-like1) (not stated (endogenous in rat or mouse NP cells)) (UniProt Q9EPW1)

Row | Molecule | binding [1] | binding [2] | binding [3]
1 | BMAL1 (brain and muscle ARNT-like1) (from UniProt Q9EPW1 1-626) | binds | no binding | 
2 | HIF-1α (from UniProt O35800 1-825) | no binding |  | no binding
3 | HIF-1β/ARNT (from UniProt P41739 1-800) |  | binds | 
4 | B1 |  | no binding | binds
